# Laboratory results: PubChem BioAssay (NCI)
# The source holds several records for some structures; these can differ, active in one and inactive in another.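 Cell lines were cultured in 96-well plates, exposed to a single compound concentration, and assessed for percent growth 48 hours later.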 Some entries of the source have several records that differ or are many. The other results are left out here. The calls were made as follows: active = growth percent below 10; inactive = the rest. The source may hold further records. This drug was run again and again over the years, at its own concentration, as given; one value stands for one run. Additions like (4×) give the number of equal values in this list.
# Key:
# NCI-H226 lung = test: NCI-60 one-dose screen, 48 h (100 = growth as untreated, 0 = no growth, -100 = all killed); conditions: 2.5 mM
# NCI-H322M lung = test: as above; conditions: 2.5 mM
compound,measurement,setting,value
O=c1[nH]cc(F)c(=O)[nH]1,growth,NCI-H226 lung; runs of 1996,"inactive: 14.4, 56.4, 26.4, 35.1, 47.6 (2×), 51.7, 34.4, 33.7, 57.3, 40.5, 54.5, 62, 51.5, 55.7, 20.1, 42.9, 51, 58, 33.6, 54.8, 46.9, 36.5, 62.6, 31.8, 11.8, 18.8, 45.4 (2×), 34.6, 12.7, 49.2, 42.1 (2×), 30.8, 42.6, 57.1, 38.8, 52.7, 56.1, 60, 73.6, 39.6, 53, 75.6, 13.7, 32.5, 32.4, 11.4, 18.7, 24.8% and active: -8.66, -7.12, 7.1, 0.416, 5.78, -32.1, 9.63%"
same,growth,NCI-H226 lung; runs of 1997,"inactive: 15.3, 48, 61.7, 27.6 (2×), 62.1, 30.5, 57.7, 27.3, 38.1, 38, 44.2, 61.8, 21.5, 42.3, 40.3, 45.9 (2×), 44.6, 53.2, 48.2, 27.4, 50.1, 47.6, 60.2, 68.7, 46.9, 51, 42.1, 49.9, 55.2, 50.8% and active: -0.362, 9.05, 1.93, -1.02, -2.11%"
same,growth,NCI-H226 lung; runs of 1998,"inactive: 65.6, 94.4, 48.5, 21.7, 44.4, 75.6, 55.4, 44.8, 59.6, 26.3, 63.1, 52.5, 28.3% and active: -6.91, 6.6, -2.27, -23.8, -19.1, 4.7%"
same,growth,NCI-H226 lung; runs of 1999,"inactive: 22.9, 26.4, 11.3, 22, 35.6% and active: -68.6, -74.9, -85.8, -69.6, -71, -47.7, -34.9, -43.1, 0.0899%"
same,growth,NCI-H226 lung; runs of 2000,"active: -69.6, -16, -36.2, -82.8%"
same,growth,NCI-H322M lung; runs of 1991,"inactive: 17.6, 44.2, 22.3, 25.2, 20.8, 14.4, 10.8, 37.4, 28, 21.5, 27.4, 18.2, 28.4, 33.8, 29.8% and active: 6.97%, 0.769%, -6.81%"
same,growth,NCI-H322M lung; runs of 1992,"inactive: 17.4, 35.6 (2×), 14.2, 39.1, 30.3, 20.2 (2×), 16, 25.7 (2×), 16.5, 25.3 (2×), 18.2 (2×), 10.6, 35.7, 30.8, 43.4, 23.2, 10, 64.2, 32.5, 25.4, 21.5, 22.9, 42 (2×), 58.6, 43.3, 41, 32.1, 46.3, 17 (2×), 30.6 (2×), 26.5, 21.8, 17.9, 36, 14.4, 24.5 (3×), 24.8, 33.8 (2×), 29.7, 28.6, 31.7, 16.1, 26.3 (2×), 26.8, 26.6, 103, 20.4, 32, 12.3, 23.9 (2×), 35.9, 24, 27.7, 22.6, 33.9, 19.1, 21.2, 17.1, 25 (3×), 38.1, 20.6 (2×), 35.8, 31.9, 32.8 (2×), 15.3, 14.5, 32.6, 15.2, 28.3, 33.2, 30, 18.6, 48.1, 18.4, 11.9, 13.5, 11.1, 29.8, 30.7, 15.8, 29.1, 20.9, 23.4, 32.9, 26.1, 19.8, 21.3, 36.1, 21.7, 41.3, 35.1, 30.1% and active: 6.03, 6.25, 7.85, -4.9, -14.7, 7.12, 5.81, 6.4%"
same,growth,NCI-H322M lung; runs of 1993,"inactive: 23.8, 23.2, 26 (2×), 15.2 (2×), 23.9, 14 (3×), 11.6, 24.4, 33.6, 41.3, 10.1, 16.4, 34.8, 28.4, 22.9, 23.7, 28.1, 21.4, 30.6, 26.1, 15.7, 17.4, 37.8, 77.8, 17, 32.9, 25.5, 13, 35.7, 28.3, 20.1% and active: 2.95, 7.63, -1.75, 5.33, -8.49%"
same,growth,NCI-H322M lung; runs of 1994,"inactive: 24.6, 11.5, 29.8, 22.7, 34.2, 31.8, 25.8, 40.8 (2×), 33.3, 30.6, 26.9, 38.4, 31.5, 23.7, 37.4, 21.8, 21.1, 32, 37.8, 39.4, 22, 25.1, 33.1, 13.3, 29.3% and active: -2.67%, -12.8%"
same,growth,NCI-H322M lung; runs of 1995,"inactive: 35.3, 17.6, 19.2, 23.1 (2×), 36.4, 35.7, 10.1, 27.9 (2×), 27.3, 22.8, 13.1, 33, 22.7, 27.4, 19.8, 11.4, 24.6, 26.8, 34.8, 18.7, 31.1, 37.8, 28.4, 28.1, 35.4, 24.9, 25.6, 29.8, 21.5, 31.8, 26.9, 21, 33.6% and active: 9.69, -9.25, -3.29, -7.59%"
same,growth,NCI-H322M lung; runs of 1996,"inactive: 28, 25 (2×), 17.9, 24.4 (2×), 28.1, 21.1 (2×), 16.2, 29.6, 19.3, 24.9 (2×), 34.1 (3×), 38.8, 18.5, 31.2, 31, 20.8, 33.8, 43.6, 36, 36.6, 34.7, 44.2, 27, 29.4, 30.6, 17.7, 34.4, 29.9, 34, 33.4, 27.9, 30.2, 29.5, 22.9, 22.6, 25.5, 32.7, 10.7, 23.2, 35.6, 42.1, 13.5, 28.2, 28.6, 33.1, 50.3, 34.3, 29, 40.8% and active: 2.39%, 7.12%"
same,growth,NCI-H322M lung; runs of 1997,"inactive: 34.6 (2×), 36.7, 24.7, 30.4, 28.8 (2×), 31.3, 25, 12.8, 31.9 (2×), 31.5, 18.7, 40.2, 15.6, 30.2, 25.4, 30.1, 37.7, 26.4, 41.3, 37.8, 20, 18.8, 12.3, 17.4, 22.1, 12, 21, 15.7, 41.5, 25.6, 17.2, 39.1, 26.2, 21.2, 17.5, 22.4, 30.9% and active: -1.84%, 8.06%, -20%"
same,growth,NCI-H322M lung; runs of 1998,"active: 0.621, 0.452, 8.86, 1.2, -4.17, -6.04, -22.9, -18.7, -29.7, -18.2, -34.3% and inactive: 16.4, 41.9, 32.3, 27.4, 31.4, 20.9, 28.2, 13.2, 20.7, 40.4, 33, 22.2, 17.1, 12.6, 12.8%"
same,growth,NCI-H322M lung; runs of 1999,"inactive: 47.1, 19.5, 21.1, 18.6, 21.2, 29.7, 11.3% and active: -63.4, 0.676, -28.4, -30.1, 8.24, -19.6, -49.1, -100%"
same,growth,NCI-H322M lung; runs of 2000,"active: -20.7, -54.9, -11.2, -27.4%"
